{"source": "paper PMC7824383", "about": "“Organic Solution Advanced Spray-Dried Microparticulate/Nanoparticulate Dry Powders of Lactomorphin for Respiratory Delivery: Physicochemical Characterization, In Vitro Aerosol Dispersion, and Cellular Studies” (Pharmaceutics, 2020)", "tested_on": "A549 adenocarcinoma human alveolar basal epithelial cells", "test": "Resazurin cell viability assay, A549", "settings": "48 h exposure, 0.1, 1, 10 and 1000 µg/mL, resazurin fluorescence, p > 0.05", "note": "Square brackets hold non-standard residues; d marks the D form. Peptide text beside a SMILES is read from it. * marks the point of attachment. X1 = OC[C@H]1O[C@@H](O[C@H]2[C@H](O)[C@@H](O)[C@H](*)O[C@@H]2CO)[C@H](O)[C@@H](O)[C@H]1O", "data": [{"compound": "CC(C)C[C@H](NC(=O)[C@H](Cc1ccccc1)NC(=O)CNC(=O)[C@H](NC(=O)[C@@H](N)Cc1ccc(O)cc1)[C@H](C)O)C(=O)N[C@@H](CO[C@@H]1O[C@H](CO)[C@@H](O[C@@H]2O[C@H](CO)[C@H](O)[C@H](O)[C@H]2O)[C@H](O)[C@H]1O)C(N)=O", "note": "[Lactomorphin, H2N-Tyr-D-Thr- Gly-Phe-Leu-Ser-(O-β-Lactoside)-CONH2] (H-Y[dT]GFLS(X1)-NH2)", "values": [{"measurement": "relative cell viability% vs control", "result": "no statistically significant difference"}]}]}
